The source of these data is PMC6919601, “Identification of Plasmodium dipeptidyl aminopeptidase allosteric inhibitors by high throughput screening” (PLoS ONE, 2019).

The structures appear in SMILES notation. Screen size: about 110,000 compounds; about 230 (0.21%) showed an effect of 50% or more. The list shows a part of the results.
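Note: 30 min substrate incubation versus DMSO and 10 µM JCP410 controls.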

The assay deals with DPAP1 (Plasmodium falciparum, UniProt Q8IIJ9). As to the kind of experiment: primary screen, percent inhibition; read by cleavage of a fluorogenic dipeptide substrate; higher = more effect of the substance. Also noted: species or system P. falciparum D10 trophozoite lysates; single well.
DPAP1, sequence (Q8IIJ9 whole entry, looked up): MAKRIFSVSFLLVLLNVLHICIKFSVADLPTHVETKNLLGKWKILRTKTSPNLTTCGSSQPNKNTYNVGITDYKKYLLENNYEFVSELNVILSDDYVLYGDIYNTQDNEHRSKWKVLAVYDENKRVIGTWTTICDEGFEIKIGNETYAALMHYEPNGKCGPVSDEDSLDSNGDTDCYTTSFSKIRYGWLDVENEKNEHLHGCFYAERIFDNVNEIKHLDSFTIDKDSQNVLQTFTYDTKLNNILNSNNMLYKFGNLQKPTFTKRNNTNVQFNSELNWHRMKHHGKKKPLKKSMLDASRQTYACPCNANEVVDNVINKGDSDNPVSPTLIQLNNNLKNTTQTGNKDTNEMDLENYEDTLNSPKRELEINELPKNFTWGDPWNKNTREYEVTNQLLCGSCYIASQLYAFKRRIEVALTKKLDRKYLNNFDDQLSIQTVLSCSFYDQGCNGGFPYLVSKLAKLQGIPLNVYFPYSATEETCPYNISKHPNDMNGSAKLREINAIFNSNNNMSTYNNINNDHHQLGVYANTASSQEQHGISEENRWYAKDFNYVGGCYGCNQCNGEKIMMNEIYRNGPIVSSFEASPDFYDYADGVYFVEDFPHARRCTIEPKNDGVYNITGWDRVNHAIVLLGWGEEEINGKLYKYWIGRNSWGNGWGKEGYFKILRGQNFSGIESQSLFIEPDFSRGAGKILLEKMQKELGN
Turning to `O=C(/C=C/c1cccnc1)c1ccncc1`, the “% Inhibition @ 10 uM” value is on record as 1.96%.
Turning to `O=C1Cc2ccccc2C(c2ccccc2)N1` (stereo not shown), the “% Inhibition @ 10 uM” value is 3.82%.
Then `N#C/C(=C\c1cccs1)c1nc(C2CC2)cs1`, with 0.98%.
Then `O=C(C[n+]1ccccc1)Nc1noc2ccccc12`, with 2.19%.
The result for `CC(=O)N1CCN(S(=O)(=O)c2ccc(C)cc2)C1C` (stereo not shown) reads -3.75%.
For `Nc1ncc(Br)cc1S(=O)(=O)NCCC(=O)NCCN1CCCCCC1`, the “% Inhibition @ 10 uM” value is on record as -1.87%.
Turning to `COc1cccc(CSc2nc3ccncc3n2Cc2ccc(C(=O)NCc3ccco3)cc2)c1`, the “% Inhibition @ 10 uM” value is on record as 1.72%.
Then `CCC(C)NC(=O)C1CCN(c2nnc(C)c3c(C)n(-c4ccc(OC)cc4)nc23)CC1` (stereo not shown), with -0.696%; and `CCN(CC)CCNC(=O)c1cc2c(s1)-c1ccc(Cl)cc1SC2`, with -0.72%.
Then `Cc1ccc(OCC(=O)NC2CCCCC2NC(=O)COc2ccc(C)cc2)cc1` (stereo not shown), with -0.473%; and `COCCN1C=C(C(=O)OC)C(c2sccc2C)C(C(=O)OC)=C1`, with -6.44%; and `O=C(CCCOc1ccccc1)N1CCCC1`, with 0.475%.
On to `Cc1cc(C)c2c(c1)N[C@H](c1cccs1)[C@@H]1CCO[C@H]21`, for which the “% Inhibition @ 10 uM” value is given as -6.05%.
Then `Cc1ccc(/C=C/c2n[nH]c(-c3ccccc3O)n2)o1`, with 0.628%.
Take `COc1ccc(CN2CCc3ccccc3C2)c(O)c1`: the “% Inhibition @ 10 uM” value amounted to 2.1%.
With `COc1cc(C(=O)NCC(C)C)cc(OC)c1OC`, the “% Inhibition @ 10 uM” value is reported as -6.39%.
Then `O=C(c1cc2c(Cl)nc3ccccc3c2s1)N1CCN(c2ncccn2)CC1`, with 8.03%; and `Cc1cccc(N(CC(=O)Nc2ccc3c(c2)OCO3)S(=O)(=O)c2ccccc2)c1`, with 2.37%; and `COc1ccc(NC(=O)c2ccccc2NC(=O)CN2C(=O)c3ccccc3C2=O)cc1`, with 0.812%.
The result for `O=S(=O)(c1ccc(Sc2ccc(S(=O)(=O)N3CCCCC3)cc2)cc1)N1CCCCC1` reads 5.61%; that for `CCN1CCCC1CNC(=O)Cn1cccc1C(=O)c1ccccc1` (stereo not shown), -0.522%; that for `COc1ccccc1C/N=c1/c(-c2ccccc2)c(O)c1=O`, -3.77%.
The result for `COc1ccc(N2C(=O)CSC2c2ccc(C)cc2)cc1` (stereo not shown) reads 2.92%; that for `COC(=O)c1cc(-c2ccc(F)cc2)n(-c2ccccc2)n1`, 6.38%; that for `Cc1cc(C)n2nc(CCC(=O)O)nc2n1`, -4.69%.
`Cc1ccccc1NCCNc1ccccc1C`: the “% Inhibition @ 10 uM” value worked out at 1.7%.
Then `O=C(NCCc1c[nH]c2ccccc12)c1ccc(Cl)cc1`, with 0.00178%.
Then `Cc1csc(NC(=O)CCCC(=O)c2ccccc2)n1`, with 0.238%; and `CCCCCOc1ccc(C2C(C#N)=C(N)OC3=C2C(=O)CC(C)(C)C3)cc1OC` (stereo not shown), with -2.68%; and `Cc1ccc(-c2nc(CSCC(=O)NC(C)c3ccccc3)c(C)o2)cc1` (stereo not shown), with -1.05%.
The result for `Cc1nc2ccc(S(=O)(=O)C(F)(F)F)cc2s1` reads 3.98%; that for `CCc1ccc(-c2cn3c(n2)sc2cc(C(=O)N4CCC5(CC4)OCCO5)ccc23)cc1`, 33.8%.
Consider `CC(C)c1ccc(NS(=O)(=O)c2ccc(Br)s2)cc1`, for which the “% Inhibition @ 10 uM” value came out at 2.95%.
Then `CCOC(=O)c1c(C)nc2nn3c(N)c(C#N)nnc3c2c1-c1ccc(C)cc1`, with 5.13%; and `COc1ccc(CN2CCN(c3nn4nnnc4c4ccccc34)CC2)c(OC)c1OC`, with -6.66%; and `N#Cc1c(N)nc2c(c1-c1ccco1)CCCCC2`, with -5.61%.
For the compound `O=S(=O)(c1ccccc1)n1cccn1`, the “% Inhibition @ 10 uM” value was -6.25%.
Then `CC1CCCCN1S(=O)(=O)c1ccccc1[N+](=O)[O-]` (stereo not shown), with 2.58%.
`CC(Oc1ccccc1)C(=O)Nc1c(C(=O)NC(C)(C)C)oc2ccccc12` (stereo not shown): the “% Inhibition @ 10 uM” value was 0.0065%.
The result for `C=C(C)c1cccc(C(C)(C)NC(=O)NCc2ccc(Cl)cc2)c1` reads -0.386%.
The result for `COC(=O)c1cc(OC)c(S(=O)(=O)NCc2ccccc2)cc1OC` reads -2.28%; that for `O=C(O)C1CC=CCC1C(=O)Nc1cc(Cl)ccc1Cl` (stereo not shown), -0.305%.
The result for `COc1ccccc1N1CCN(C(=O)C2CC2)CC1` reads -1.36%; that for `COc1ccc(Br)cc1C1N2CC3(C)CN1CC(C)(C2)C3=O` (stereo not shown), -1.31%.
As for `O=C(O)CCS(=O)(=O)c1ccc(Cl)c(Cl)c1`, the “% Inhibition @ 10 uM” value is listed as -0.0369%.
The result for `COc1ccc(NC(=O)c2cccc(Cl)c2)cc1` reads 4.06%.
`COc1ccc(CNC(=O)c2cnc3ccc(S(=O)(=O)N4CCOCC4)cc3c2Cl)cc1`: the “% Inhibition @ 10 uM” value turned out to be 9.04%.
As for `CC1CC(C)CN(C(=O)CSc2nc3ccccc3c3nc4ccccc4n23)C1` (stereo not shown), the “% Inhibition @ 10 uM” value came to 4.33%.
Then `CS(=O)(=O)c1oc(-c2cccs2)nc1S(=O)(=O)c1ccc(F)cc1`, with -1.22%; and `Cc1cc(C=O)c(C)n1-c1cccnc1`, with -6.28%; and `Cc1ccccc1C(=O)N1CCN(C)CC1`, with -3.05%.
The result for `c1ccc(N2CCN(C3CCCCCCC3)CC2)cc1` reads -5.44%.
